# The supplement of paper PMC9446081
# About 220 (0.56%) of roughly 39,000 compounds showed activity. The list shows a part of the results.
# Tested on: Escherichia coli K-12 BW25113
# Assay: relative growth (OD600 normalised to plate interquartile mean) (fraction); higher = less growth inhibition, active = 0.2 or less
# Conditions: 50 µM; LB; incubation time: overnight (16-24 h)
# 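Further: static incubation at 37 °C against the wild-type strain, values averaged over two biological replicates.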
row,SMILES,relative growth
1,C[C@@H]1CN([C@@H](C)CO)C(=O)Cc2cc(NC(=O)c3ccncc3)ccc2O[C@H]1CN(C)Cc1ccc(-c2ccccc2)cc1,inactive: 0.986
2,CO[C@H]1O[C@H](CO)[C@@H](OC(=O)Nc2ccc(Oc3ccccc3)cc2)[C@H](OC(=O)Nc2ccccc2-c2ccccc2)[C@@H]1OC(=O)Nc1ccccc1-c1ccccc1,inactive: 1.04
3,CC(NCCCc1cccc(C(F)(F)F)c1)c1cccc2ccccc12.Cl (configuration not stated),active: 0.0467
4,O=C1OCC=C[C@H]2O[C@@]34C=CCN(CCN5CCOCC5)C(=O)[C@H]3N(CCO)C(=O)[C@@H]4[C@@H]12,inactive: 1.01
5,Cc1noc(C)c1S(=O)(=O)Nc1ccc2c(c1)C(=O)N([C@@H](C)CO)C[C@@H](C)[C@H](CN(C)C(=O)Nc1ccc3c(c1)OCO3)O2,inactive: 0.951
6,O=C1CC[C@@H](C(=O)O)N1,inactive: 1.01
7,Cc1ccc(S(=O)(=O)Nc2ccc3c(c2)C(=O)N([C@H](C)CO)C[C@H](C)[C@@H](CN(C)S(=O)(=O)c2ccccc2)O3)cc1,inactive: 1.04
8,COc1ccc(S(=O)(=O)N(C)C[C@@H]2OCCCC[C@H](C)Oc3ccc(NC(=O)Nc4ccccc4)cc3C(=O)N([C@@H](C)CO)C[C@@H]2C)cc1,inactive: 1.02
9,O=C(C[C@@H]1CC[C@@H]2[C@H](COC[C@@H](O)CN2S(=O)(=O)c2ccccc2)O1)NCc1ccc(-c2ccccc2)cc1,inactive: 0.914
10,COCC(=O)N1C[C@@H]2OCCN(c3ncccn3)[C@H]2C1,inactive: 0.997
11,C[C@@H]1CCCCO[C@@H](CN(C)C(=O)NC2CCCCC2)[C@H](C)CN([C@H](C)CO)C(=O)c2cc(NC(=O)CCC(F)(F)F)ccc2O1,inactive: 1.02
12,C[C@@H]1CN([C@H](C)CO)C(=O)c2cc(NS(=O)(=O)c3ccccc3)ccc2O[C@H]1CN(C)S(=O)(=O)c1cn(C)cn1,inactive: 0.992
13,CC(=O)O[C@H]1C[C@@]2(C)[C@H]3CC=C4[C@@H](C[C@@H](O[C@H]5O[C@@H](CO)[C@@H](O)[C@@H](O)[C@@H]5O)[C@@H](O)C4(C)C)[C@@]3(C)CC[C@@]2(C)[C@@H]1C(C)(O)C(=O)CCC(C)(C)O (some centres not stated),inactive: 1.01
14,Cc1ccc(S(=O)(=O)Nc2ccc3c(c2)C(=O)N([C@H](C)CO)C[C@H](C)[C@@H](CN(C)C(=O)CCC(F)(F)F)OCCCC[C@@H](C)O3)cc1,inactive: 1.02
15,Nc1nc(=O)n([C@H]2C[C@H](O)[C@@H](CO)O2)cc1O,inactive: 0.967
16,CO[C@H]1O[C@H](CO)[C@@H](OC(=O)Nc2ccccc2-c2ccccc2)[C@H](OC(=O)Nc2ccccc2-c2ccccc2)[C@@H]1OC(=O)Nc1ccccc1-c1ccccc1,inactive: 1.07
17,COc1ccc(S(=O)(=O)Nc2ccc3c(c2)C(=O)N([C@H](C)CO)C[C@@H](C)[C@@H](CN(C)C(=O)c2ccccc2)OCCCC[C@H](C)O3)cc1,inactive: 1.02
18,O=C(NCCO)C1=C[C@H](Oc2ccccc2I)[C@@H](O)[C@H](N(Cc2ccco2)C(=O)Cc2ccccc2)C1,inactive: 1.04
19,C[C@@H]1CN([C@H](C)CO)C(=O)c2cccc(NS(C)(=O)=O)c2O[C@@H]1CN(C)C(=O)Nc1ccc(F)cc1,inactive: 0.986

row,SMILES,relative growth
1,C[C@@H]1CCCCO[C@H](CN(C)Cc2ccc(C(F)(F)F)cc2)[C@H](C)CN([C@H](C)CO)C(=O)c2cc(NC(=O)Nc3ccc(F)cc3)ccc2O1,inactive: 1.01
2,C[C@@H]1CCCCO[C@H](CN(C)Cc2ccccc2)[C@@H](C)CN([C@@H](C)CO)C(=O)c2cc(NC(=O)Nc3ccc(C(F)(F)F)cc3)ccc2O1,inactive: 0.962
3,C[C@@H]1CN([C@@H](C)CO)C(=O)c2cc(Br)cnc2O[C@H]1CN(C)C(=O)Nc1ccc2c(c1)OCO2,inactive: 0.995
4,Cc1noc(C)c1NC(=O)Nc1ccc2c(c1)C(=O)N([C@H](C)CO)C[C@H](C)[C@H](CN(C)C(=O)Nc1c(C)noc1C)OCCCC[C@@H](C)O2,inactive: 0.993
5,C[C@H]1CN([C@@H](C)CO)C(=O)c2cccc(NC(=O)C3CC3)c2O[C@@H]1CN(C)S(=O)(=O)c1cccs1,inactive: 1
6,C[C@H](CO)N1C[C@H](C)[C@H](CN(C)S(=O)(=O)c2cn(C)cn2)Oc2c(NS(=O)(=O)c3ccc(Cl)cc3)cccc2C1=O,inactive: 0.998
7,CN(C)CC(=O)N[C@@H]1C=C[C@@H](CC(=O)NCCN2CCCCC2)O[C@H]1CO,inactive: 1
8,COc1ccc(S(=O)(=O)Nc2ccc3c(c2)C(=O)N([C@H](C)CO)C[C@@H](C)[C@@H](CN(C)C(=O)NC2CCCCC2)OCCCC[C@@H](C)O3)cc1,inactive: 0.994
9,C[C@@H]1CN([C@@H](C)CO)C(=O)c2cccc(NC(=O)CCCCCC(=O)Nc3ccccc3N)c2O[C@H]1CN(C)Cc1ccc(-c2ccccc2)cc1,inactive: 1.01
10,COc1cccc(S(=O)(=O)N(C)C[C@@H]2Oc3ncc(C#Cc4ccc(OC)c(OC)c4)cc3C(=O)N([C@H](C)CO)C[C@@H]2C)c1,inactive: 1
11,O=C(N[C@H]1CC[C@H](CCNS(=O)(=O)c2ccc(F)cc2)O[C@H]1CO)C1CC1,inactive: 0.991
12,CC=C(C(=CC)c1ccc(O)cc1)c1ccc(O)cc1,inactive: 0.953
13,C[C@H]1CCCCO[C@H](CN(C)S(=O)(=O)c2cn(C)cn2)[C@@H](C)CN([C@@H](C)CO)C(=O)c2cc(NC(=O)Nc3cccc4ccccc34)ccc2O1,inactive: 1.02
14,COc1ccc(NC(=O)Nc2ccc3c(c2)CC(=O)N([C@H](C)CO)C[C@@H](C)[C@@H](CN(C)Cc2ccc(Oc4ccccc4)cc2)O3)cc1,inactive: 1.01
15,C[C@H](CO)N1C[C@H](C)[C@@H](CN(C)Cc2ccc(C(=O)O)cc2)Oc2c(NC(=O)c3cnccn3)cccc2C1=O,inactive: 1
16,CCCC#Cc1cnc2c(c1)C(=O)N([C@@H](C)CO)C[C@H](C)[C@@H](CN(C)S(=O)(=O)c1cccc(OC)c1)O2,inactive: 1.02
17,C[C@@H]1CN([C@H](C)CO)C(=O)c2cccc(NS(=O)(=O)c3ccc(F)cc3)c2O[C@H]1CN(C)Cc1ccc(Oc2ccccc2)cc1,inactive: 1.02
18,CCNC(=O)C[C@H]1CC[C@@H]2[C@H](COC[C@@H](O)CN2C(=O)Nc2c(C)noc2C)O1,inactive: 1.01
19,CN(C)CC(=O)N1[C@@H]2c3ccc(C4=CCCC4)c(=O)n3C[C@H]1[C@H](CO)[C@H]2C(=O)NCC1CC1,inactive: 0.978

row,SMILES,relative growth
1,C[C@H]1CCCCO[C@@H](CN(C)Cc2ccncc2)[C@@H](C)CN([C@@H](C)CO)C(=O)c2cc(NC(=O)Nc3cccc4ccccc34)ccc2O1,inactive: 1.02
2,COc1ccc(-c2cc(=O)c3c(O)cc(O)c(-c4cc(-c5cc(=O)c6c(O)cc(O)cc6o5)ccc4OC)c3o2)cc1,inactive: 1.01
3,COc1ccccc1NC(=O)N(C)C[C@@H]1Oc2ncc(Br)cc2C(=O)N([C@@H](C)CO)C[C@H]1C,inactive: 1.02
4,C[C@H]1CN([C@@H](C)CO)C(=O)Cc2cc(NC(=O)Nc3ccc(C(F)(F)F)cc3)ccc2O[C@@H]1CN(C)C(=O)Nc1ccc2c(c1)OCO2,inactive: 0.978
5,CSc1nn(C)c2cnn(C)c(=O)c12,inactive: 0.982
6,C[C@@H]1CN([C@H](C)CO)C(=O)c2cc(NC(=O)Cc3ccccc3)ccc2O[C@@H](C)CCCCO[C@H]1CN(C)Cc1ccc(C(=O)O)cc1,inactive: 0.926
7,Cc1ccc(S(=O)(=O)Nc2ccc3c(c2)C(=O)N([C@@H](C)CO)C[C@H](C)[C@H](CN(C)C(=O)Cc2ccccc2)OCCCC[C@@H](C)O3)cc1,inactive: 1.02
8,C[C@H]1CN([C@@H](C)CO)C(=O)c2ccccc2-c2ccccc2CO[C@H]1CN(C)Cc1cccc(C(F)(F)F)c1,inactive: 1
9,CO[C@@H]1CN(C)C(=O)c2ccc(NS(=O)(=O)c3cccc(C)c3)cc2OC[C@@H](C)N(Cc2cc(F)ccc2F)C[C@H]1C,inactive: 1.03
10,C[C@H]1CN([C@@H](C)CO)C(=O)c2cc(-c3cncnc3)cnc2O[C@H]1CN(C)C(=O)Nc1ccc2c(c1)OCO2,inactive: 1.01
11,C[C@@H]1CN([C@@H](C)CO)C(=O)Cc2cc(NC(=O)Nc3ccc4c(c3)OCO4)ccc2O[C@H]1CN(C)Cc1ccc(-c2ccccc2)cc1,inactive: 1.02
12,CCC(=O)Nc1ccc2c(c1)C(=O)N(C)C[C@@H](OC)[C@@H](C)CN(C(=O)CN1CCOCC1)[C@H](C)CO2,inactive: 0.992
13,C[C@H](CO)N1C[C@H](C)[C@@H](CN(C)Cc2ccc(C(=O)O)cc2)OCCCC[C@H](C)Oc2ccc(NC(=O)Nc3ccc(C(F)(F)F)cc3)cc2C1=O,inactive: 0.995
14,O=C(C[C@@H]1CC[C@@H]2[C@H](COC[C@H](O)CN2S(=O)(=O)c2cccc(Cl)c2)O1)NCc1ccncn1,inactive: 0.996
15,Cc1[nH]c(=O)[nH]c(=O)c1S(=O)(=O)N1CCC[C@H](C(=O)NCc2ccc3c(c2)OCO3)C1,inactive: 1.02
16,O=C(C[C@@H]1C[C@@H]2c3cc(NS(=O)(=O)c4ccc(F)cc4)ccc3O[C@@H]2[C@@H](CO)O1)N1CCOCC1,inactive: 1.01
17,C[C@@H]1CCCCO[C@@H](CN(C)S(=O)(=O)c2cccs2)[C@@H](C)CN([C@@H](C)CO)C(=O)c2cc(NS(=O)(=O)c3ccc(Cl)cc3)ccc2O1,inactive: 1.03
18,COc1cccc(NC(=O)N2C[C@@H](O)COC[C@H]3O[C@H](CC(=O)NCCCN4CCOCC4)CC[C@@H]32)c1,inactive: 0.921
19,OCc1ccc(O[C@@H]2O[C@H](CO)[C@@H](O)[C@H](O)[C@H]2O)cc1,inactive: 1
